IC50 is the fitted dose that halves viability relative to control wells, and lower means more sensitive; where the fit passes the top or lowest dose, that dose stands as a limit. For AUC the same curve is integrated over the 256-fold range of doses and scaled to a fraction; values near 1 show little effect. For part of these data: A top dose marked as inferred is not printed in the source and was worked back from the curve model.
Key:
Experiment in all cases: Viability of human cancer cell lines after 72 h of drug (GDSC screen)
KIN001-244 = compound: O=C(NC(COc1ccc2[nH]c(=O)[nH]c2c1)c1ccccc1)c1cccn(Cc2ccc(F)c(F)c2)c1=O [KIN001-244]; conditions: top dose 20 µM; top dose inferred
Protocol: (§1)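 Human cancer cell lines in 384-well plates, medium with 10% serum, drug for 72 h over a 256-fold dose range (nine 2-fold or five 4-fold steps up to the top dose). Adherent lines were fixed and stained with the nucleic acid dye Syto60, suspension lines read with resazurin; signal relative to control wells, capped at 0 and 100%. One two-parameter sigmoid per drug and line, fitted in a mixed model over all curves with the slope shared within a line.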

HG-6-64-1 = compound: CCN1CCN(Cc2ccc(NC(=O)c3ccc(C)c(/C=C/c4cnc5[nH]ccc5c4OC)c3)cc2C(F)(F)F)CC1 [HG-6-64-1]; conditions: top dose 5.12 µM; top dose inferred
Protocol: as §1

PF-4708671 = compound: CCc1cncnc1N1CCN(Cc2nc3ccc(C(F)(F)F)cc3[nH]2)CC1 [PF-4708671]; conditions: top dose 10 µM; top dose inferred
Protocol: as §1

AV-951 = compound: COc1cc2nccc(Oc3ccc(NC(=O)Nc4cc(C)on4)c(Cl)c3)c2cc1OC [AV-951]; conditions: top dose 0.128 µM; top dose inferred
Protocol: as §1

I-BET-762 = compound: CCNC(=O)C[C@@H]1N=C(c2ccc(Cl)cc2)c2cc(OC)ccc2-n2c(C)nnc21 [I-BET-762]; conditions: top dose 20 µM; top dose inferred
Protocol: as §1

Trametinib = compound: CC(=O)Nc1cccc(-n2c(=O)n(C3CC3)c(=O)c3c(Nc4ccc(I)cc4F)n(C)c(=O)c(C)c32)c1 [Trametinib]; conditions: top dose 1 µM
Protocol: as §1

Row | Cell Line | AUC (KIN001-244) | IC50 (KIN001-244) [µM] | AUC (HG-6-64-1) | IC50 (HG-6-64-1) [µM] | AUC (PF-4708671) | IC50 (PF-4708671) [µM] | AUC (AV-951) | IC50 (AV-951) [µM] | AUC (I-BET-762) | IC50 (I-BET-762) [µM] | AUC (Trametinib) | IC50 (Trametinib) [µM]
1 | MKN28 (stomach, adherent) | 0.876 | > 20 | 0.724 | 1.4 | 0.942 | > 10 | 0.983 | > 0.128 | 0.971 | > 20 | – | –
2 | MOLM-16 (acute myeloid leukaemia, suspension) | – | – | – | – | 0.894 | 9.44 | – | – | – | – | 0.816 | 0.47
3 | MOLT-16 (T-cell lymphoblastic leukaemia, suspension) | – | – | – | – | 0.931 | > 10 | – | – | – | – | 0.904 | 0.85
4 | NCC010 (kidney, adherent) | – | – | – | – | 0.985 | > 10 | – | – | – | – | 0.882 | > 1
5 | NCI-H146 (small cell lung carcinoma, suspension) | – | – | – | – | 0.986 | > 10 | – | – | – | – | 0.993 | > 1
6 | NCI-H508 (large intestine, semi-adherent) | – | – | – | – | 0.975 | > 10 | – | – | – | – | 0.916 | > 1
7 | NCI-H835 (lung carcinoid, suspension) | – | – | – | – | 0.987 | > 10 | – | – | – | – | 0.979 | > 1
8 | NCI-H929 (myeloma, suspension) | – | – | – | – | 0.964 | > 10 | – | – | – | – | 0.191 | 0.00907
9 | NCI-H1105 (small cell lung carcinoma, suspension) | – | – | – | – | – | – | – | – | – | – | 0.981 | > 1
10 | NCI-H1341 (small cell lung carcinoma, suspension) | – | – | – | – | 0.972 | > 10 | – | – | – | – | 0.937 | > 1
11 | NCI-H1734 (lung adenocarcinoma, adherent) | 0.946 | > 20 | 0.714 | 1.39 | 0.985 | > 10 | 0.981 | > 0.128 | 0.973 | > 20 | – | –
12 | NCI-H2030 (lung adenocarcinoma, adherent) | 0.886 | > 20 | 0.561 | 0.483 | 0.909 | > 10 | 0.977 | > 0.128 | 0.943 | > 20 | – | –
13 | NCI-H2052 (mesothelioma, adherent) | 0.968 | > 20 | 0.701 | 1.4 | 0.965 | > 10 | 0.972 | > 0.128 | 0.931 | > 20 | – | –
14 | NCI-H2066 (small cell lung carcinoma, adherent) | – | – | – | – | 0.98 | > 10 | – | – | – | – | 0.944 | > 1
15 | NCI-N87 (stomach, adherent) | – | – | – | – | 0.958 | > 10 | – | – | – | – | 0.888 | > 1
16 | PA-1 (ovary, adherent) | 0.786 | 6.69 | 0.606 | 0.584 | 0.981 | > 10 | 0.986 | > 0.128 | 0.772 | 6.11 | – | –
17 | PANC-04-03 (pancreas, adherent) | 0.943 | > 20 | 0.874 | > 5.12 | 0.906 | > 10 | 0.966 | > 0.128 | 0.966 | > 20 | – | –

Row | Cell Line | AUC (KIN001-244) | IC50 (KIN001-244) [µM] | AUC (HG-6-64-1) | IC50 (HG-6-64-1) [µM] | AUC (PF-4708671) | IC50 (PF-4708671) [µM] | AUC (AV-951) | IC50 (AV-951) [µM] | AUC (I-BET-762) | IC50 (I-BET-762) [µM] | AUC (Trametinib) | IC50 (Trametinib) [µM]
18 | PWR-1E (prostate, adherent) | – | – | – | – | 0.97 | > 10 | – | – | – | – | 0.888 | > 1
19 | RCH-ACV (B-cell leukaemia, suspension) | – | – | – | – | 0.93 | > 10 | – | – | – | – | 0.983 | > 1
20 | RH-18 (rhabdomyosarcoma, adherent) | – | – | – | – | 0.918 | > 10 | – | – | – | – | 0.767 | 0.425
21 | RPMI-7951 (melanoma, adherent) | 0.913 | > 20 | 0.812 | 2.63 | 0.976 | > 10 | 0.984 | > 0.128 | 0.947 | > 20 | – | –
22 | SISO (cervix, adherent) | 0.934 | > 20 | 0.865 | 4.21 | 0.984 | > 10 | 0.976 | > 0.128 | 0.889 | > 20 | – | –
23 | SK-GT-2 (stomach, adherent) | – | – | – | – | 0.965 | > 10 | – | – | – | – | 0.67 | 0.191
24 | SK-MEL-24 (melanoma, adherent) | 0.78 | 10.1 | 0.542 | 0.427 | 0.973 | > 10 | 0.983 | > 0.128 | 0.884 | > 20 | – | –
25 | SK-MEL-31 (melanoma, adherent) | – | – | – | – | 0.965 | > 10 | – | – | – | – | 0.889 | > 1
26 | SKM-1 (haematopoietic neoplasm, suspension) | – | – | – | – | 0.939 | > 10 | – | – | – | – | 0.097 | < 0.00391
27 | SNU-1040 (large intestine, adherent) | 0.781 | 11.4 | – | – | – | – | 0.978 | > 0.128 | 0.839 | > 20 | 0.884 | > 1
28 | SUP-B8 (B-cell leukaemia, suspension) | – | – | – | – | 0.978 | > 10 | – | – | – | – | 0.972 | > 1
29 | SW780 (bladder, adherent) | 0.982 | > 20 | 0.573 | 0.517 | 0.97 | > 10 | 0.986 | > 0.128 | 0.985 | > 20 | – | –
30 | T-24 (bladder, adherent) | 0.898 | > 20 | 0.92 | > 5.12 | 0.969 | > 10 | 0.986 | > 0.128 | 0.957 | > 20 | – | –
31 | TC-YIK (cervix, suspension) | – | – | – | – | 0.923 | > 10 | – | – | – | – | 0.808 | 0.436
32 | VM-CUB-1 (bladder, adherent) | 0.933 | > 20 | 0.84 | 3.37 | 0.985 | > 10 | 0.989 | > 0.128 | 0.973 | > 20 | – | –
33 | VMRC-LCD (lung adenocarcinoma, adherent) | – | – | – | – | 0.958 | > 10 | – | – | – | – | 0.988 | > 1
34 | ZR-75-30 (breast, adherent) | – | – | – | – | 0.954 | > 10 | – | – | – | – | 0.981 | > 1
